Some of the results follow. The main result of the screen is listed elsewhere. These columns were measured beside it and carry no call.
How the values were obtained:
Assay in all cases: Primary Screen for Target Class Profiling of Small Molecule Inhibitors of Methyltransferases
[1] = biological target: Glycine N-methyltransferase (Homo sapiens) (UniProt Q14749); details: purified enzyme, MTase-Glo SAH luminescence; measured here: GNMT inhibition; at 40 µM; stronger effect = lower value
Method in brief: (§1)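 Each enzyme was assayed with SAM and its substrate. SAH formation detected by MTase-Glo luminescence; single-point 40 uM screen[…].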

[2] = biological target: Guanidinoacetate N-methyltransferase (Homo sapiens) (UniProt Q14353); details: purified enzyme, MTase-Glo SAH luminescence; measured here: GAMT inhibition; at 40 µM; stronger effect = lower value
Method in brief: as §1

[3] = biological target: Histamine N-methyltransferase (Homo sapiens) (UniProt P50135); details: purified enzyme, MTase-Glo SAH luminescence; measured here: HNMT inhibition; at 40 µM; stronger effect = lower value
Method in brief: as §1

[4] = biological target: Nicotinamide N-methyltransferase (Homo sapiens) (UniProt P40261); details: purified enzyme, MTase-Glo SAH luminescence; measured here: NNMT inhibition; at 40 µM; stronger effect = lower value
Method in brief: as §1

[5] = biological target: Phenylethanolamine N-methyltransferase (Homo sapiens) (UniProt P11086); details: purified enzyme, MTase-Glo SAH luminescence; measured here: PNMT inhibition; at 40 µM; stronger effect = lower value
Method in brief: as §1
On the % scale 0 is the no-effect control and ±100 the full control effect.

Structure (SMILES)	activity change, negative = inhibition [1] [%]	activity change, negative = inhibition [2] [%]	activity change, negative = inhibition [3] [%]	activity change, negative = inhibition [4] [%]	activity change, negative = inhibition [5] [%]
CC(C)C1c2cccn2CCN1C(=O)Nc1ccccc1Cl (stereo not given)	-2.03	0.643	-9.15	-7.81	-5.99
Cc1cc(C(C)Nc2ccccc2)c2nc(N3CCOCC3)cc(=O)n2c1 (stereo not given)	-1.04	-3.14	4.18	-24.5	-10.1
COC1OC(OC)C(O)(CCC2(C)C(C)CCC3(C)C2CC(O)C(O)C32CO2)C1O (stereo not given)	2.7	7.84	4.01	-6.46	6.6
CCOC(=O)c1cc2n(n1)CC(C)(C(=O)NCc1ccccc1)N(Cc1ccccc1)C2=O (stereo not given)	1.12	0	9.23	12.9	2.37
Clc1ccc2nsnc2c1NC1=NCCN1	-11.5	1.39	2.34	-7.09	-1.2
CN(C)c1nccnc1OC1CCN(S(=O)(=O)c2ccccc2)C1 (stereo not given)	-1.92	-7.14	-0.067	-2.44	0.951
CCN1CCC2(CCC1=O)CN(c1ncnc3c1CCC3)CCN2C (stereo not given)	-2.58	-2.05	-0.333	0.347	-9.23
O=C(CCc1nc2ccccc2s1)NC1CCc2n[nH]c(=O)n2CC1 (stereo not given)	-3.93	-0.463	1.38	-3.96	4.81
CC(C)CNC(=O)c1ccc2c(=O)n(Cc3ccccc3)c3nn(Cc4ccccc4F)c(=O)n3c2c1	-0.28	6.18	2.74	0.138	0.792
C=C1CC(=O)C2OC2(C)CC2OC(=O)C(=C)C2C(O)C1OC(=O)/C(C)=C\C (stereo not given)	-0.319	-22.2	0.336	-31.8	-3.34
COc1cccc(CN2C(=O)c3nc4ccccc4n3CC2(C)C(=O)NC2CCCCCC2)c1OC (stereo not given)	-2.24	5.3	2.46	-5.62	-2.73
CC(C)CCn1c(=O)c2ccccc2n2c(CCC(=O)NCc3ccc(F)cc3)nnc12	-4.51	1.56	-3.46	9.09	-4.71
CN1C(=O)C(c2ccccc2)CC12CCN(c1ccnc(N)n1)CC2 (stereo not given)	3.27	1.24	-50.4	-0.656	2.18
COc1ccccc1CNC(=O)C1c2c(n(C)c3ccccc23)SCC(=O)N1c1cccc(SC)c1 (stereo not given)	9.51	0.276	3.54	-1.18	3.1
CC1(C(=O)NC2CCCCCC2)Cn2c(cc3sccc32)C(=O)N1CCCN1CCOCC1 (stereo not given)	2.19	1.37	3.3	7.33	2.21
C[S+](=O)([O-])N1CC2(Cc3ccccc3N(C(=O)Cc3ccc(F)cc3)C2)C1	-6.17	-7.99	-4.44	-11.1	-8.46
Cc1ccc(CN2C(=O)CSc3c(c4ccccc4n3C)C2C(=O)NCCC(C)C)cc1 (stereo not given)	4.48	0	-1.16	-3.04	3.65
CCC(C)NC(=O)c1cccc(-c2ccc(OC)nn2)c1 (stereo not given)	-8.96	-6.13	-4.14	-14.3	-10.8
CC(C)c1c2cc(-c3ccnc(NC4CCC(NC5CCOCC5)CC4)n3)ccc2nn1C (stereo not given)	-40.7	-12.3	-57.4	-23.2	-25.1
COc1cccc(CNC(=O)N[C@@H]2CN(c3ncccn3)C[C@H]2CN(C)C)c1	-5.21	-8.79	-2.93	-11.9	-7.67
CCOC(=O)c1cc2n(n1)CC(C)(C(=O)NCc1ccccc1)N(CCc1ccc(SC)cc1)C2=O (stereo not given)	1.73	3.84	10.9	3.37	3.12

Structure (SMILES)	activity change, negative = inhibition [1] [%]	activity change, negative = inhibition [2] [%]	activity change, negative = inhibition [3] [%]	activity change, negative = inhibition [4] [%]	activity change, negative = inhibition [5] [%]
CC(C)CCNC(=O)CCc1nnc2n(Cc3ccc(Cl)cc3)c(=O)c3ccccc3n12	-4.2	3.14	-0.254	1.43	-3.84
CCCCOc1ccc(C(=O)Nc2ccc(F)cc2F)cc1	5.53	-2.56	4.39	-15.1	-7.95
Nc1nc(OCc2cc(Br)cs2)c2[nH]cnc2n1	-3.55	-4.11	8.16	-18	1.76
CCCn1c(=O)c2ccccc2n2c(SCC(=O)N3CCN(c4ccc(F)cc4)CC3)nnc12	-4.75	0	2.64	-10.1	0.524
Cc1nn(C)c(C)c1S(=O)(=O)N1CCC(c2noc(-c3ccccc3)n2)C1 (stereo not given)	-4.37	-2.42	-0.185	-9.57	1.48
CC(=O)Nc1nnc(S(N)(=O)=O)s1	1.01	14.9	4.81	-0.121	13.2
COc1c(Nc2ncc(Cl)c(N[C@H]3[C@@H](C(N)=O)[C@@H]4C=C[C@H]3C4)n2)ccc2c1CC[C@@H](N1CCOCC1)CC2	0.543	9.17	7.05	-16.7	-3.5
CC(C)CCn1c(=O)c2ccc(C(=O)NC(C)C)cc2n2c(=O)n(CC(=O)c3ccc(F)cc3F)nc12	-0.519	-1.15	-2.88	-6.01	-4.25
CO/N=C(\C(=O)N[C@@H]1C(=O)N2C(C(=O)O)=C(COC(C)=O)CS[C@H]12)c1csc(N)n1	-18.9	15.4	3.5	1.77	10.8
O=C(CCn1ccn2nc3c(c2c1=O)CCCC3)Nc1ccc(F)cc1F	-3.91	2.92	1.64	-13.5	-4.5
COCCN[C@H]1[C@@H]2OC[C@@H](O2)[C@@H](NC(=O)Nc2ccc(OC)cc2)[C@@H]1O	-1.01	-3.71	0.699	-9.2	-2.78
CC(C)Cn1c(=O)c2ccccc2n2c(SCc3ccccc3)nnc12	-10.4	0	1.63	-11.5	3.07
COc1ccc(CNC(=O)c2cc3n(n2)CC(C)(C(=O)NC2CCCCCC2)N(C)C3=O)cc1 (stereo not given)	-7.47	5.12	-7.96	4.29	-3.58
CCN1CCC(CC(=O)N2CCC(C3CCN(C(=O)NC)CC3)C2)CC1 (stereo not given)	0.621	0.169	-2.06	0.968	3.26
O=[N+]([O-])c1ccc(-[n+]2nc(-c3ccccc3)nn2-c2ccc(I)cc2)cc1	-44.1	-43.2	-36	-53.6	-46.8
COc1ccc(CNC(=O)C2(C)Cn3cnc(C(=O)NCc4cccc(Cl)c4)c3C(=O)N2C2CC2)cc1 (stereo not given)	-7.2	4.63	-3.67	-6.45	-0.359
O=C(CCC1CCN(Cc2ccccc2)CC1)c1ccc2c(c1)NCCCC2	1.76	12.3	-32.5	-7.99	3.32
CC(C)CCn1c(=O)c2ccccc2n2c(CCC(=O)NCCCOC(C)C)nnc12	-4.31	3.51	7.78	2.28	3.41
COc1ccc(Cn2c(=O)c3ccccc3n3c(-c4ccc(Br)cc4)nnc23)cc1	-2.4	3.94	-1.83	1.95	-2.15
CNc1ccc(C)cc1C(=O)N1CCN(C)C2(CCN(C)CC2)C1	-8.35	-10.2	-6.1	-17.6	-10.1
CC(=O)Nc1c2n(c3ccc(F)cc13)CC(C)(C(=O)NC1CCCC1)N(Cc1ccccc1)C2=O (stereo not given)	4.53	0	8.73	11.5	3.62

Structure (SMILES)	activity change, negative = inhibition [1] [%]	activity change, negative = inhibition [2] [%]	activity change, negative = inhibition [3] [%]	activity change, negative = inhibition [4] [%]	activity change, negative = inhibition [5] [%]
CN(C)C(=O)c1n[nH]c2c1CN(C(=O)c1ccccc1Br)CC2	-0.115	0.283	-1.42	-1.29	6.17
CCOCCCN1C(=O)c2ccc(-c3ccccc3)n2CC1(C)C(=O)NC1CCCCCCC1 (stereo not given)	-2.12	0.882	2.45	-7.45	-2.79
O=c1[nH]c(C2CCCN(Cc3cccc(Cl)c3)C2)nc2ccc(F)cc12 (stereo not given)	-9.1	-3.11	-21.9	-19.4	-20.5
CCCn1c(=O)c2cc(Cl)ccc2n2c(=O)n(Cc3ccc(Cl)cc3)nc12	-1.01	4.32	4.54	1.98	0.941
O=C(NC1CCCC1)c1ccc2c(=O)n(Cc3ccccc3)c3nn(Cc4ccccc4F)c(=O)n3c2c1	-0.158	2.69	-0.916	-0.04	-1.72
CC(CNC(=O)CCc1nnc2n(Cc3ccc(F)cc3)c(=O)c3ccccc3n12)c1ccccc1 (stereo not given)	-17.9	-2.71	-15.2	-34.2	-7.82
C#CCN(Cc1ccco1)Cc1cnc(S(C)(=O)=O)n1CCCc1ccccc1	-3.68	0.742	0.436	-12.3	-4.48
CC1(C)CN(C(=O)c2ccc(-c3cccc4nc(NC(=O)C5CC5)nn34)cc2)C1	-15.3	-14.1	11.5	-21.3	-5.6
COCC(=O)N1CC(C(=O)NCCc2ccc(OC)cc2)CC(c2ccc(F)c(C)c2)C1 (stereo not given)	0.007	1.9	2.13	-3.48	1.43
CN1CCN(Cc2ncc[nH]2)CC12CCC(=O)N(CC(=O)O)CC2 (stereo not given)	-6.08	-8.26	-3.52	-11.8	-11.2
COc1cccc(-c2ccc(CN3CCCC(NC(=O)c4ccc(Cl)cc4)C3)cc2)c1 (stereo not given)	-5.09	-8.82	-8.68	-11.4	-16.8
Cc1ccc(CNC(=O)Cn2ccc3cc(S(=O)(=O)N4CCC(C)CC4)ccc32)cc1	-0.043	0	0.614	0.523	0.513
CCCC1c2cccn2CCN1C(=O)Nc1ccc(C)c(Cl)c1 (stereo not given)	-0.67	0.943	-21.1	-0.644	2.65
O=C(c1ccncc1)N1CC2CCC(C1)N2Cc1ccc(-c2cccs2)cc1	-3.3	-7.23	-0.607	-6.94	-2.59
COc1ccc(CNc2cc3c(cn2)CN(Cc2ccccc2)CCN3)cc1OC	-40.6	-7.9	-94.4	-61.1	-19.6
C=C(C)C(=O)OC1[C@@H]2C(=C)C(=O)O[C@@H]2C[C@@H](C)[C@@H]2C=CC(=O)[C@@]12C (stereo not given in full)	3.8	2.67	9.81	-5.8	5.07
Cc1ccc(CS(=O)(=O)NC2CCc3n[nH]c(=O)n3CC2)cc1C (stereo not given)	-0.812	0.214	0.858	-4.16	-9.4
CC(C)OCCCn1c(=O)c2ccccc2n2c(=O)n(CC(=O)c3ccc(F)cc3)nc12	0.013	0	8.03	-5.45	1.1
COc1ccc(CNC(=O)C2(C)Cn3cnc(C(=O)Nc4ccc(C(C)C)cc4)c3C(=O)N2C2CC2)cc1 (stereo not given)	-2.13	0.709	3.17	-5.07	1.69

From PubChem BioAssay AID1745853 (National Center for Advancing Translational Sciences (NCATS), 2022)
